# Laboratory results: PubChem BioAssay (NCI)
#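 Each compound was tested at five concentrations against cells in 96-well plates for 48 hours. The concentration for 50% growth inhibition is given as GI50. At the TGI there is no net growth.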
# Tested on: NCI-H322M lung
# Experiment: NCI anticancer screen, dose series, 48 h
smiles,measurement,value
Brc1ccc(-c2n(Cc3ccc4ccccc4c3)c(-c3ccccc3)c(-c3ccccc3)[n+]2Cc2ccc3ccccc3c2)cc1,GI50,0.377 µM
same,TGI,1.42 µM
